Among all 340,000 compounds or so, about 6,900 (2%) were called active. Rule as the data show it: active = inhibition above about 30%; inactive = below that, where a call was filed. This is a selection; strong and weak results do not stand in their true shares. Where no call is shown, the source filed none.
Each compound was assayed against D(2) dopamine receptor (Homo sapiens) (UniProt P14416) (assay: HTS Assay for Allosteric Antagonists of the Human D2 Dopamine Receptor: Primary Screen for Antagonists). Details: HEK293 TREx D2 cells, calcium flux, dopamine EC80; at 10 µM; stronger effect = higher value.
In short: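 Overnight-induced (tetracycline, 30 C) HEK293 T-REx cells carrying force-coupled D2 receive a no-wash calcium dye, then compound, then EC80 dopamine at 180 s; signals are read kinetically throughout.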
Also: 0% is about no effect.

Chain of UniProt P14416 (P14416 whole entry, looked up): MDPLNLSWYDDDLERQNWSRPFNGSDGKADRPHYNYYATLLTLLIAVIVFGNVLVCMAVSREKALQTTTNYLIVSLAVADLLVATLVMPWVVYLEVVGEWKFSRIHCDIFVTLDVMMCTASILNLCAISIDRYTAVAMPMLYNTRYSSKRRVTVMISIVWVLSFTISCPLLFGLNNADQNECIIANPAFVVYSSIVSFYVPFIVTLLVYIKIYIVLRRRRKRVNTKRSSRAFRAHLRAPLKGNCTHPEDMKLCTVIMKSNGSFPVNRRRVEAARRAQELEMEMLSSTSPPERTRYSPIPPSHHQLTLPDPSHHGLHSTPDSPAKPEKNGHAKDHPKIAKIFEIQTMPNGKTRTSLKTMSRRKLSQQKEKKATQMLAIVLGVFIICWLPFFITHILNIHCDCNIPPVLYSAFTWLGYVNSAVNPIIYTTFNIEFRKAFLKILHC

Q: How did the inhibition turn out when COC(=O)c1c(C)sc(-c2c(-c3ccc4c(c3)OCCO4)[nH]c3[nH]c(=O)[nH]c(=O)c23)c1O was run?
A: 8.98%

Q: For CC(C)CC(C(=O)Nc1ccc2c(c1)OCCO2)N1C(=O)c2ccccc2C1=O (stereo not drawn), which inhibition is on record?
A: active: 57%

Q: CCOc1ccc(-c2cc3nc(C4CCN(C(=O)OC(C)(C)C)CC4)c(C(=O)Nc4ccc(C)cc4Cl)cn3n2)cc1 was tested. Which inhibition did it give?
A: -4.18%

Q: For CN1CCSc2ccc(C(=O)NCc3ccccc3F)cc21, which inhibition is on record?
A: 11.1%

Q: O=C(OCC1CCCO1)c1ccc2c(c1)N(Cc1cccc(Cl)c1)C(=O)c1ccccc1S2(=O)=O (stereo not drawn) was tested. Which inhibition did it give?
A: 5.43%

Q: Cc1ccc(NC(=O)NCCOCCn2c(=O)oc3ccccc32)cc1F was tested. Which inhibition did it give?
A: -14.3%

Q: With Cc1cccc(NC(=O)c2c(NC(=O)c3ccccc3)sc3c2CCCC3)c1 as the compound, how does the inhibition read?
A: -4.09%

Q: Which inhibition does the source give for COc1ccc(S(=O)(=O)NCC(=O)N(CC(=O)NCc2ccco2)C2CCCC2)cc1 here?
A: active: 46.7%

Q: CC(C)Oc1ccc(CNC(=O)Nc2ccc3c(c2)N(C)C(=O)c2ccccc2S3)cc1 was tested. Which inhibition did it give?
A: 9.92%

Q: Which inhibition does the source give for COc1cccc(/C(O)=C2/C(=O)C(=O)N(c3ccccn3)C2c2ccc(OC)c(OC)c2)c1 (stereo not drawn) here?
A: active: 31.8%

Q: Which inhibition does the source give for CCCSc1ncc(Cl)c(C(=O)Nc2c(C(=O)Nc3ccccc3)oc3ccccc23)n1 here?
A: 1.65%

Q: For COc1ccc(N2CCN(S(=O)(=O)CCNC(=O)COc3cccc(OC)c3)CC2)cc1, which inhibition is on record?
A: 19.5%

Q: With Cc1cccc(Cn2c(SCc3ccc(C(=O)N4CCC(C)CC4)cc3)nc3ccncc32)c1 as the compound, how does the inhibition read?
A: -10.3%

Q: For Cc1ccc(C)c(OCCC(=O)OCC(=O)N2c3ccccc3NC(=O)C2(C)C)c1, which inhibition is on record?
A: active: 42.3%

Q: COc1ccccc1NC(=O)CN1C(=O)CC(c2ccc(C)c(C)c2)=Nc2ccccc21 was tested. Which inhibition did it give?
A: 10.2%

Q: With COc1ccccc1CCNC(=O)Cc1c(C)c2cc3c(C(C)(C)C)coc3c(C)c2oc1=O as the compound, how does the inhibition read?
A: 9.46%

Q: Which inhibition does the source give for CCCc1cc(=O)[nH]c(SCc2nc(-c3ccc(C)cc3)no2)n1 here?
A: 6.82%

Q: For COc1ccc(CCNC(=O)c2ccc(-n3c(C)cc4c3CCCC4)cc2)cc1OC, which inhibition is on record?
A: 3.63%

Q: Cc1cccc(NC(=O)Cn2cnc(S(=O)(=O)N3CCCC3)c2)c1C was tested. Which inhibition did it give?
A: 11%

Q: With COC(=O)c1ccc(Cl)cc1NC(=O)NCc1c(-n2cccc2)sc2c1CCCC2 as the compound, how does the inhibition read?
A: -2.29%

Q: O=C(Nc1cccc2cccnc12)c1cccc2ccccc12 was tested. Which inhibition did it give?
A: 0.138%

Q: CCOC(=O)c1ccc(NC(=O)c2csc3c2CCCC3)cc1 was tested. Which inhibition did it give?
A: 3.7%

Q: CCOc1ccc(C(=O)Nc2ccc(C(=O)OCc3cc(=O)n4ccsc4n3)cc2)cc1 was tested. Which inhibition did it give?
A: 9.01%

Q: For COc1cccc(N2CCN(C(=O)c3cc4c(=O)n(Cc5cccs5)ccc4nc3C)CC2)c1, which inhibition is on record?
A: 12.1%

Q: With C=CCOc1ccccc1CN1CCC(Cc2ccccc2)CC1 as the compound, how does the inhibition read?
A: active: 30.7%

Q: With Cc1ccc(CNC(=O)Cn2ncc3c([nH]c4ccc(C)cc43)c2=O)cc1 as the compound, how does the inhibition read?
A: 4.28%

Q: CSc1ncc(C(=O)NCc2ccc(Cl)cc2)c(C(F)(F)F)n1 was tested. Which inhibition did it give?
A: 3.98%

Q: For CCn1c(CN2CCCCC2)nc2cc(NC(=O)c3ccccc3[N+](=O)[O-])ccc21, which inhibition is on record?
A: 10.8%

Q: For CCOC(=O)CSc1nc(-c2ccccc2)cc(C(F)(F)F)c1C#N, which inhibition is on record?
A: 27.2%

Q: With Cc1ccc(NC(=O)c2c(C(=O)Nc3ccccc3)sc3nc(C)cc(=O)n23)c(C)c1 as the compound, how does the inhibition read?
A: 1.98%

Q: How did the inhibition turn out when Cc1nn(-c2ccccc2)c(OC(=O)c2ccc(F)cc2)c1S(=O)(=O)c1ccccc1 was run?
A: 4.99%

Q: How did the inhibition turn out when CCN(C(=O)CCNC(=O)Cn1cnc2ccccc2c1=O)c1cccc(Cl)c1 was run?
A: -7.08%

Q: With COc1cccc(NC(=O)C(=O)NCCc2csc(-c3ccc(C)cc3)n2)c1 as the compound, how does the inhibition read?
A: -10.1%

Q: CCCn1cc(S(=O)(=O)c2ccc(C)cc2)c(=O)c2cc(OC)c(OC)cc21 was tested. Which inhibition did it give?
A: -6.75%

Q: COc1ccc(C2=C(C)C(N3CCC(C(=O)Nc4cc(C)ccc4C)CC3)=NS2(=O)=O)cc1 was tested. Which inhibition did it give?
A: -8.29%

Q: With O=C(Nc1ccccc1-c1nnn(CC(=O)N2CCCc3ccccc32)n1)c1ccc(Cl)cc1 as the compound, how does the inhibition read?
A: active: 47.4%

Q: Cc1ccc(OCC(=O)Nc2cc(-c3nc4ccccc4[nH]3)ccc2C)c(C)c1 was tested. Which inhibition did it give?
A: -9.35%

Q: With CC(=O)c1ccc(NC(=O)c2ccc(NC(=O)CCS(=O)(=O)c3cccs3)cc2)cc1 as the compound, how does the inhibition read?
A: -10.2%

Q: For Cc1cccc(Cn2cc(S(=O)(=O)c3ccc(Cl)cc3)c(=O)c3cc4c(cc32)OCO4)c1, which inhibition is on record?
A: 9.06%

Q: Cn1c(=O)c2c(SCC(=O)NCC3CCCO3)nc(-c3cccc(F)c3)nc2n(C)c1=O (stereo not drawn) was tested. Which inhibition did it give?
A: 3.44%

Q: How did the inhibition turn out when Cc1cccc(OCCSc2nc3ccc(NC(=O)c4cccs4)cc3s2)c1 was run?
A: -23.4%

Q: With CS(=O)(=O)N1CCC(n2c(C(F)(F)F)nc3cccnc32)CC1 as the compound, how does the inhibition read?
A: -2.51%

Q: How did the inhibition turn out when Cc1cccc(C)c1Nc1c(-c2cccs2)nc2ncccn12 was run?
A: 10.1%

Q: For CCCCC(=O)Nc1cc2nn(-c3ccc(OCC)cc3)nc2cc1C, which inhibition is on record?
A: -12.5%

Q: For CCc1nn(Cc2cccc(F)c2)c(=O)c2cc3cc(C)ccc3n12, which inhibition is on record?
A: 3.24%

Q: Cc1ccc(-n2ncc(C(=O)N3CCN(c4ccccn4)CC3)c2C2CCN(C(=O)OC(C)(C)C)CC2)cc1 was tested. Which inhibition did it give?
A: -5.59%

Q: How did the inhibition turn out when CCC(C)NC(=O)Cn1c(=O)n(-c2ccc(Cl)c(Cl)c2)c(=O)c2c(C)c(C(=O)N(CC)CC)sc21 (stereo not drawn) was run?
A: -21.5%

Q: With COc1ccc(NS(=O)(=O)c2ccc(C)c(C(=O)N3CCC3)c2)cc1 as the compound, how does the inhibition read?
A: active: 48.9%

Q: COC(=O)c1ccccc1NC(=O)Cn1c(=O)nc(-c2ccccc2)c2cc(Cl)ccc21 was tested. Which inhibition did it give?
A: 0.6%

Q: Cc1ccc(NC(=O)c2cc(S(=O)(=O)N3CCCc4ccccc43)ccc2F)cc1F was tested. Which inhibition did it give?
A: -20.2%

Q: How did the inhibition turn out when O=C(C1CC1)N1CCc2cc(Br)cc(S(=O)(=O)N3CCN(c4cccc(Cl)c4)CC3)c21 was run?
A: -1.87%

Q: How did the inhibition turn out when Cc1ccc2nc(COc3cccc(NC(=O)COc4ccccc4F)c3)cc(=O)n2c1 was run?
A: 7.22%

Q: With CCOC(=O)c1cc(-c2ccccc2)n(-c2cccc(C(=O)Nc3cccc(C)c3)c2)c1C as the compound, how does the inhibition read?
A: 6.16%

Q: How did the inhibition turn out when Cc1cccc(OCC(=O)OCc2cc(=O)n3nc(-c4cccs4)sc3n2)c1 was run?
A: 2.52%

Q: For O=C(Nc1ccc2nc(SCC(=O)N3CCCC3)sc2c1)c1ccc(Br)cc1, which inhibition is on record?
A: 3.98%

Q: With Cc1ccc(CSc2ccc3nnc(CCNS(=O)(=O)c4ccc(C)cc4)n3n2)cc1 as the compound, how does the inhibition read?
A: -13.3%

Q: With O=C(COC(=O)CNC(=O)c1ccccc1)Nc1ccc(F)c([N+](=O)[O-])c1 as the compound, how does the inhibition read?
A: active: 34.4%

Q: Which inhibition does the source give for CCOC(=O)CC(=O)CSc1nc2ccccc2c(=O)n1-c1ccc(C(=O)NCCOC)cc1 here?
A: -7.71%

Q: COC(=O)c1ccc(C(=O)OC)c(NC(=O)N2CC3CCCN3c3ccccc32)c1 (stereo not drawn) was tested. Which inhibition did it give?
A: 6.17%

Q: With CCOc1ccccc1NC(=O)CSc1nc2c([nH]c3ccccc32)c(=O)n1-c1ccccc1 as the compound, how does the inhibition read?
A: -27.3%

Q: CCOC(=O)c1c(-c2ccc(C)cc2)csc1NC(=O)c1cc(=O)c2cc(Cl)ccc2o1 was tested. Which inhibition did it give?
A: 9.08%

Q: With O=C(CC1NCCNC1=O)Nc1ccccc1F (stereo not drawn) as the compound, how does the inhibition read?
A: 18.7%

Q: Which inhibition does the source give for Cc1ccc(Cl)cc1N1CCN(C(=O)c2cc3c(=O)n(C)c4ccccc4c3s2)CC1 here?
A: -17%

Q: Cc1ccc(OCc2nc(-c3ccc(C(=O)N4CCN(c5cc(Cl)ccc5C)CC4)cc3)oc2C)cc1 was tested. Which inhibition did it give?
A: 12.8%

Q: How did the inhibition turn out when O=S(=O)(c1ccccc1)c1nc(-c2cccs2)oc1SCc1ccccc1Cl was run?
A: -5.73%

Q: For CCOc1ccc(Cn2c(CNS(=O)(=O)c3c(C)cc(C)cc3C)nc3cccnc32)cc1, which inhibition is on record?
A: 5.77%

Q: How did the inhibition turn out when CCC(C)n1c(SCc2ccc(C(C)(C)C)cc2)nc2ccsc2c1=O (stereo not drawn) was run?
A: 3.4%

Q: Which inhibition does the source give for CCn1c(=O)sc2cc(NC(=O)c3cccc(OC)c3)ccc21 here?
A: -1.8%

Q: How did the inhibition turn out when CCN1CCN(c2nnc(-n3cccc3C(=O)Nc3cccc(OC)c3)s2)CC1 was run?
A: 14%

Q: Which inhibition does the source give for O=C(Cn1ccn(-c2ccc(F)c(F)c2)c(=O)c1=O)c1ccc(F)cc1 here?
A: 1.83%

Q: Which inhibition does the source give for CC(C)c1nn2c(=O)cc(COC(=O)CNC(=O)c3ccccc3Cl)nc2s1 here?
A: 7.82%

Q: Nc1ccc2oc(CCc3ccccc3)nc2c1 was tested. Which inhibition did it give?
A: active: 37.9%

Q: Which inhibition does the source give for CC(=O)c1ccc(NC(=O)CCCc2nc(-c3cccc(C)c3)no2)cc1 here?
A: -19.8%

Q: How did the inhibition turn out when O=C(Cn1cc(C(=O)C2CC2)c2ccccc21)Nc1ccc(Br)cc1 was run?
A: -3.94%

Q: With CCC1CCCCN1CCCNC(=O)c1ccc2c(c1)N(Cc1ccc(Cl)cc1)C(=O)c1ccccc1S2(=O)=O (stereo not drawn) as the compound, how does the inhibition read?
A: -15.2%

Q: COc1ccccc1N1CCN(c2ccc(-c3nc(-c4ccccc4)no3)cc2[N+](=O)[O-])CC1 was tested. Which inhibition did it give?
A: 8.61%

Q: Which inhibition does the source give for COc1ccc(-c2cc(N)n(S(=O)(=O)c3c(F)c(F)c(F)c(F)c3F)n2)cc1OC here?
A: active: 34.9%

Q: Which inhibition does the source give for O=C(CN1C(=O)CSc2ccc(S(=O)(=O)N3CCCC3)cc21)NCc1ccc(Cl)cc1 here?
A: -6.65%

Q: With COc1ccc(NC(=O)CN2C(=O)COc3ccc(S(=O)(=O)N4CCCCC4)cc32)cc1Cl as the compound, how does the inhibition read?
A: -27%

Q: COc1ccc(NC(=O)c2oc3ccccc3c2NC(=O)Cc2cccs2)cc1 was tested. Which inhibition did it give?
A: -12.4%

Q: With COc1ccc(C2Nc3ccccc3C(=O)N2NS(=O)(=O)c2ccccc2)cc1 (stereo not drawn) as the compound, how does the inhibition read?
A: active: 39%

Q: For COc1ccc(C)cc1NC(=O)N1CCN(c2cc(-c3noc(C)n3)ccc2C)CC1, which inhibition is on record?
A: -14.7%

Q: With Cc1c(C)n(Cc2ccc(F)cc2)c2ccc(C(=O)Nc3ccc(Cl)cc3)cc12 as the compound, how does the inhibition read?
A: 7.63%

Q: O=C(CC1C(=O)N(c2ccccc2)C(=O)N1Cc1ccc2c(c1)OCO2)Nc1ccccc1 (stereo not drawn) was tested. Which inhibition did it give?
A: 0.481%

Q: Which inhibition does the source give for O=C1CC(c2nnc(Cc3ccccc3Cl)o2)CN1c1ccccc1 (stereo not drawn) here?
A: 1.31%

Q: Which inhibition does the source give for Cc1ccc(-c2cc3c(n2-c2ccccc2F)CC(C)(C)CC3=O)cc1 here?
A: 8.63%

Q: For O=S(=O)(Cc1ccccc1)Nn1cnnc1, which inhibition is on record?
A: active: 31.4%

Q: With CCOC(=O)c1ccc(CN(Cc2ccccc2C)S(=O)(=O)c2ccc(F)c(C(=O)Nc3cccc(OC)c3)c2)cc1 as the compound, how does the inhibition read?
A: -4.46%

Q: How did the inhibition turn out when OC(COCc1ccc(Cl)cc1)CN1CCN(c2ccccn2)CC1 (stereo not drawn) was run?
A: active: 83.9%

Q: Which inhibition does the source give for Cc1cccc(OCC(=O)Nc2ccc(Cl)c(-c3nc4ccccc4[nH]3)c2)c1 here?
A: 2.93%

Q: Which inhibition does the source give for CCc1ccccc1NC(=O)CSc1ncc(S(=O)(=O)c2ccccc2)c(=O)[nH]1 here?
A: -10.7%

Q: For CCN1CCN(Cc2c(O)ccc3oc(C)c(C(=O)Nc4ccc(C)cc4C)c23)CC1, which inhibition is on record?
A: -0.0286%

Q: CC1=C(c2ccc(C)c(C)c2)S(=O)(=O)N=C1N1CCC(C(=O)Nc2cccc(F)c2)CC1 was tested. Which inhibition did it give?
A: 8.1%
